Experimental data from PubChem BioAssay AID488969 (Vanderbilt High Throughput Screening Facility, 2010).
Over roughly 110,000 compounds, “z-score” has its median near -0.1; the highest 2% begin near 2. This is one part of the list. Residues, ends and D or L forms follow the SMILES beside them. *: point of attachment. Boc = CC(C)(C)OC(=O)*

Molecular target: Metabotropic glutamate receptor 8 (Rattus norvegicus) (UniProt P70579)
Test: rat mGluR8 modulators via GIRK flux, primary screen, cell-based, thallium flux, HTS (AID 488969)
Details: HEK293 rat mGluR8, GIRK (G protein-gated inwardly rectifying potassium channel) thallium flux, FluoZin2; at 10 µM; stronger effect = higher value; submaximal glutamate (EC20) added with thallium

UniProt P70579, sequence (P70579 whole entry, looked up): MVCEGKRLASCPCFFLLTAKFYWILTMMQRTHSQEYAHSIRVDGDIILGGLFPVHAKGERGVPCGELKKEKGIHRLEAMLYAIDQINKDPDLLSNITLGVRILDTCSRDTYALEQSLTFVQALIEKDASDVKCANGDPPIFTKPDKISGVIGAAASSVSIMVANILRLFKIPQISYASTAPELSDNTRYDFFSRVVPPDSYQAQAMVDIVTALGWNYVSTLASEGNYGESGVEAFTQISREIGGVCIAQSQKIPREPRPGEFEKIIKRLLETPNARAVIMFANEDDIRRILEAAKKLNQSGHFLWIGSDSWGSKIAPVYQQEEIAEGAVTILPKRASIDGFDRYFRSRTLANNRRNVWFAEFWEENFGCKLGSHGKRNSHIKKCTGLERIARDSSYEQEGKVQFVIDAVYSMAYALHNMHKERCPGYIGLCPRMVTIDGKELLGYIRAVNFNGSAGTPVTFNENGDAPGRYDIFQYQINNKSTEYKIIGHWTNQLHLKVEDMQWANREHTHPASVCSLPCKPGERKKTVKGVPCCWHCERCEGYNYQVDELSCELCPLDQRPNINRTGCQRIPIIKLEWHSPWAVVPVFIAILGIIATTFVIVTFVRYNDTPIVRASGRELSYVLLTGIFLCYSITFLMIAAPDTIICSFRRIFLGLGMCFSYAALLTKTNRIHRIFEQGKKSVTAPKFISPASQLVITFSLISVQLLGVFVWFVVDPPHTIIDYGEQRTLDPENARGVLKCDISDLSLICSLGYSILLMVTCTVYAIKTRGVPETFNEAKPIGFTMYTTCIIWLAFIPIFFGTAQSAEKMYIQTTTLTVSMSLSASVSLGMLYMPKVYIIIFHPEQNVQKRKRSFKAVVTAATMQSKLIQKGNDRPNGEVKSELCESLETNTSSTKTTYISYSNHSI

Compound | z-score
CC(=O)Nc1ccc(Oc2cnccn2)cc1 | -0.0949
COc1ccc(OC)c(C2C3CN(C(C)C)CC=C3C(C#N)=C(N)C2(C#N)C#N)c1 (stereo not drawn) | -0.554
O=C(Nc1cc(SCCO)cc([N+](=O)[O-])c1)c1ccco1 | -0.182
CN(C)S(=O)(=O)c1ccc(NC(=O)COC(=O)c2n[nH]c3ccccc23)cc1 | 0.415
COCCNC(=O)C(C)N(c1ccc(Oc2ccccc2)cc1)S(C)(=O)=O (stereo not drawn) | -0.016
Cc1ccc2nc(Cc3ccc(N)cc3)oc2c1 | -0.338
Cc1ccc(-c2nnn(CC(=O)N(Cc3ccccc3)C(C(=O)NC(C)(C)C)c3ccncc3)n2)o1 (stereo not drawn) | -0.495
O=C(CSc1nc(-c2ccccc2)c(-c2ccccc2)o1)Nc1nncs1 | -0.201
Cc1nc2ccccc2c(=O)n1/N=C/c1ccc(N(C)C)cc1 | -0.544
COC(=O)c1c(C)cc(OC(C)=O)c(C)c1OC(C)=O | 0.576
COc1ccc(C(CC(=O)NCc2ccccc2)Sc2n[nH]c(-c3ccccc3)n2)cc1 (stereo not drawn) | -0.187
Cc1nn(-c2ccccc2)c(Cl)c1/C=N/Nc1nc2ccccc2[nH]1 | -0.0698
CCc1ccccc1NC(=O)c1cc(C2CC2)on1 | -0.652
Cc1ccc2cc(C3C(C#N)=C(N)Oc4c3ccc3cccnc43)c(=O)[nH]c2c1 (stereo not drawn) | -0.345
COc1cccc(NC(=O)CC2S/C(=N\S(=O)(=O)c3ccccc3)N(c3ccccc3)C2=O)c1 (stereo not drawn) | -0.34
COc1cccc(NS(=O)(=O)c2ccc3[nH]cc(C(=O)NC4CC4)c(=O)c3c2)c1 | -0.131
c1coc(CNC2C3CC4CC(C3)CC2C4)c1 (stereo not drawn) | 0.183
COc1ccc(NC(=O)c2cccc(F)c2)cc1Cl | -0.393
c1cnc(SCCOc2cccc3ccccc23)nc1 | 0.0807
NC(=O)c1ccsc1NC(=O)CSc1nnc(C2CC2)n1Cc1ccccc1 | -0.337
C=CCNc1nc(NCC)nc(N2CCOCC2)n1 | 0.853
CCCNc1nc(Nc2ccc(C)cc2)nc(N2CCCC2)n1 | -0.473
COc1ccc(C(=O)NCc2ccc(-c3nc4ccccc4s3)cc2)cc1 | -0.135

Compound | z-score
OC(Cn1cncn1)(c1ccccc1)c1ccccc1 | -0.0537
COc1ccc(C(=O)Nc2ccc(S(=O)(=O)N3CCCC3)cc2)c(OC)c1 | -0.158
C=C(C)CSc1nnc(-c2cccc(Cl)c2)n1N | -0.354
Cc1noc(C)c1CSc1nnc2ccc3ccccc3n12 | 0.171
Cc1ccnc(NS(=O)(=O)c2ccc(N=CC3=C(O)CC(C)(C)CC3=O)cc2)n1 | -0.367
CC(NC(=O)Nc1ccccc1)C(c1ccccc1)N1CCOCC1 (stereo not drawn) | -0.595
CC(C)Cc1nnc(NS(=O)(=O)Cc2ccccc2)s1 | -0.297
COCCCNC(=O)CC(NS(=O)(=O)c1ccc(C)cc1)c1ccco1 (stereo not drawn) | 0.38
Oc1ccc(/C=N/NC(=S)NCc2ccco2)cc1 | 0.806
CCN(CC)CCNC(=O)c1ccc(NC2=NC3CS(=O)(=O)CC3S2)cc1 (stereo not drawn) | 0.618
COc1ccccc1N1CCN(C2CCN(C(=O)COc3cccc(C)c3)CC2)CC1 | -0.105
O=C(Nc1ccc(-c2nc3ccccc3s2)c(OC(=O)c2ccccc2)c1)c1ccccc1 | -0.23
O=[N+]([O-])c1ccccc1S(=O)(=O)n1nnc2ccccc21 | 0.18
Cc1ccc(N2CC(C(=O)Nc3ccc(S(=O)(=O)N4CCOCC4)cc3)CC2=O)cc1 (stereo not drawn) | 0.556
COc1ccc([N+](=O)[O-])cc1N(CC(O)CN(CC(C)C)CC(C)C)S(=O)(=O)c1ccccc1 (stereo not drawn) | -0.186
CC(C)Oc1ccc(Cn2c(=O)sc3ccccc32)cc1 | 0.0408
CCC(C)C(NC(=O)OC(C)(C)C)C(=O)NC(C(=O)N1CCCC1C(N)=O)C(C)CC (stereo not drawn) (Boc-Ile-Ile-Pro-NH2; configuration not given here) | 0.174
Cn1c(=O)c([N+](=O)[O-])c(NCCc2ccccc2)c2ccccc21 | 0.381
O=C(NO)c1cc(OCC(F)(F)F)ccc1OCC(F)(F)F | -0.161
CCOc1ccccc1C(=O)Nn1c(C2CCC2)nc2ccccc2c1=O | -0.734
O=C(O)CC1(Cc2nc(-c3cccs3)no2)CCCC1 | -1.18
Cc1cccc(CC(=O)OCn2nnc3ccccc3c2=O)c1 | -1.17
Cc1ccc(C(=O)CN(Cc2ccccc2)C2=NCCS2)cc1 | 0.177

Compound | z-score
COc1ccc(/C=N/NC(=O)CO/N=C(\C)c2cccs2)cc1 | 0.0451
C/C(=N\NC(=O)c1ccc(CN2CCOCC2)cc1)c1ccc([N+](=O)[O-])cc1 | -1.25
Cc1ccc(CNC(=O)CSc2nnnn2C)cc1 | -0.128
COc1nc(C)nc(NC(=O)NS(=O)(=O)c2ccc(C)cc2)n1 | 1.06
CSCCC(NC(=O)COc1ccccc1)C(=O)OCC(=O)c1cc2ccccc2o1 (stereo not drawn) | -0.092
COC(=O)c1ccccc1NS(=O)(=O)c1cn(C)c(=O)n(C)c1=O | -0.262
CC(C)Oc1cccc(C(=O)Nc2ccc(NC(=O)c3ccco3)cc2)c1 | 0.325
O=C(N/N=C/c1cccc(Oc2ccc([N+](=O)[O-])cc2[N+](=O)[O-])c1)c1cncc(Br)c1 | -0.266
CCOC(=O)c1cn(-c2nc(-c3ccc(Cl)c(Cl)c3)cs2)c2c(F)c(N3CCOCC3)c(F)cc2c1=O | -0.188
O=C(Nc1ccccc1Sc1ccccc1)C1CCCO1 (stereo not drawn) | -0.775
Cn1c(=O)c2c(-c3ccc(C(C)(C)C)cc3)n(N3CCOCC3)cc2n(C)c1=O | -0.0582
CSc1ccc(/C=C(/NC(=O)c2ccc(C)cc2)C(=O)Nc2cccc(C)c2)cc1 | -0.0464
N#CCCN1CCN(C(CNS(=O)(=O)c2ccc(Cl)cc2)c2ccccc2)CC1 (stereo not drawn) | -0.0968
O=C(CN1CCN(Cc2ccc(Cl)cc2)C1=O)NCCCN1CCN(c2ccc(F)cc2)CC1 | -0.0961
C=CCNC(=O)C12CC3CC(C1)CC(C(=O)NCC=C)(C3)C2 | -0.432
CCn1c(C)nc2cc(C(=O)NNC(=O)CCC3CCCC3)ccc21 | -0.0689
COc1cc(NC(=S)Nc2ccccn2)cc(OC)c1 | -0.278
CCOC(=O)Cc1csc(SCC(=O)Nc2cccc(Cl)c2)n1 | 0.368
Cc1cc(C)n(C(=O)CNC(=O)CCc2ccccc2)n1 | -0.136
CCC(=O)N(CCC(c1ccco1)c1ccccc1OC)Cc1cccs1 (stereo not drawn) | -0.395
Cc1cnc(C)c(N2CCC(C(=O)NC(C)c3cccs3)CC2)n1 (stereo not drawn) | 0.307
CC1(C)NC(=O)N(CCSc2ccc(Cl)cc2)C1=O | -0.257
